Source: the supplement of paper PMC11417369
Some of the results follow.

These sequences were tested on PF3D7_0420300 AP2 domain 1 (GST-tagged) (assay: gcPBM binding intensity (ln(normalized median fluorescence intensity)); higher = stronger DNA binding).
Outline: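 An Agilent 4 × 180k array carrying primer-extended double-stranded 36-bp intergenic genomic probes and negative controls received GST-tagged P. falciparum DNA-binding domains expressed in E. coli, about 25 μg on average, for 1 h. The binding buffer contained 1× PBS, 1% milk, 0.2 mg/ml BSA, 0.5% salmon testes DNA and 0.03% Triton X-100. Binding intensity is the top Masliner-normalised natural-log median intensity across replicate spots of either probe orientation, read after Alexa488 anti-GST antibody staining and a 488 nm scan.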
For “AAATATATATATATTACACACTATATATTTATTTAT [CACACA_site681]”, the “gcPBM binding intensity (ln)” value was 9.42.
For “CAACAAAAGAAACACACACACACAAACACAAAAAAA [CACACA_site3389]”, the “gcPBM binding intensity (ln)” value was 10.
With “GGATATATTATATGTACACACATATATAACGGATAT [CACACA_site1309]” the “gcPBM binding intensity (ln)” value was 9.69.
With “TGTATACCTTAATATACACACATACATATATATATA [CACACA_site8370]” the “gcPBM binding intensity (ln)” value was 9.46.
In the case of “ATATACATATTTTTGACACACATTAGGAAAATATAT [CACACA_site4123]”, the “gcPBM binding intensity (ln)” value is reported as 9.39.
“ATGTAATAAATACTACGTACATATATATGTGTTAAT [XGTACX_site3265]” was tested, and the “gcPBM binding intensity (ln)” value was 9.36.
With “ATATATAAATATAGCATACACACAAAAAAATAAAAT [CACACA_site2332]” the “gcPBM binding intensity (ln)” value was 10.
In the case of “TATTATTTATATGATACACACGTACATATACACATA [CACACA_site9275]”, the “gcPBM binding intensity (ln)” value is reported as 9.37.
For “ATGTATCGTAACAAATGTACAAGAGGATGTTTAGAC [XGTACX_site3355]”, the “gcPBM binding intensity (ln)” value was 9.57.
For “GTATTTATATGATTAACACACATATGTGGATTAATA [CACACA_site1315]”, the “gcPBM binding intensity (ln)” value was 9.35.
In the case of “GATATATTTTGTTATGTAGATGTTGGTAGGAATTTT [GTGCAC_negctrl_site485]”, the “gcPBM binding intensity (ln)” value is reported as 9.39.
In the case of “TATATAACTACAAGAACACACATATAAATATAAATA [CACACA_site7210]”, the “gcPBM binding intensity (ln)” value is reported as 9.73.
“GTAATTAAGATATATACACACAAAGGCTATTAAATA [CACACA_site6604]” was tested, and the “gcPBM binding intensity (ln)” value was 9.67.
With “TATTGATAAAAAATATGTACATATATACATATATAT [XGTACX_site3821]” the “gcPBM binding intensity (ln)” value was 9.18.
“ATATATATATATATATGTACGTAAACAAAAATTTAT [XGTACX_site6780]” was tested, and the “gcPBM binding intensity (ln)” value was 9.41.
In the case of “ACAAATAAAAAAATTACACACATATATAATATATAT [CACACA_site1361]”, the “gcPBM binding intensity (ln)” value is reported as 9.68.
“AGTAGTCTGGAGAAAAGTACACAGTATCTGGTAACA [XGTACX_site2034]” was tested, and the “gcPBM binding intensity (ln)” value was 9.1.
With “AAAAATAAAATAAAATAAAATAAAAATAAAGAAAAA [CACACA_negctrl_site808]” the “gcPBM binding intensity (ln)” value was 9.51.
“TTAATTCTATACATAAATTATGTTTACATAAAGAAT [GTGCAC_negctrl_site246]” was tested, and the “gcPBM binding intensity (ln)” value was 8.89.
In the case of “TATTAACTCAATAGCGCACACTTTTAATATTTTATA [CACACA_site4973]”, the “gcPBM binding intensity (ln)” value is reported as 9.35.
In the case of “ATTTGACACGTATATGCACACACCCGTAAGTGTCCA [CACACA_site8891]”, the “gcPBM binding intensity (ln)” value is reported as 9.6.
With “ATGTGATAATTTAGGAGTACTGTCATAAGCATTTCT [XGTACX_site3091]” the “gcPBM binding intensity (ln)” value was 9.24.
In the case of “TTATAAATTTTTAATAGTACATAAAATTAAAGGTAA [XGTACX_site760]”, the “gcPBM binding intensity (ln)” value is reported as 8.83.
“TCATAAAAAGGAATCTTTAAGATATTTTATAAGCTC [XGTACX_negctrl_site18]” was tested, and the “gcPBM binding intensity (ln)” value was 8.83.
“TTTCTTTATTTATAATAATTTTTTATTAAAAATAGA [CACACA_negctrl_site1610]” was tested, and the “gcPBM binding intensity (ln)” value was 8.59.
With “AATAAATGTCTGTTAATGCACACGATATGTCTATAT [CACACA_site2351]” the “gcPBM binding intensity (ln)” value was 9.36.
“AGTGCATAATATTTATGTACGTATCACATATATTTT [XGTACX_site5166]” was tested, and the “gcPBM binding intensity (ln)” value was 9.27.
“TATTTGGGTATTTTTACACACATTAATATATATATA [CACACA_site9114]” was tested, and the “gcPBM binding intensity (ln)” value was 9.49.
In the case of “ATAATGGAAAAAAAATATAATAATACGAAATAGGAA [TGCATGCA_negctrl_site64]”, the “gcPBM binding intensity (ln)” value is reported as 9.69.
In the case of “AAAGATAATAATATGCGTACATAAAAATATATGATA [XGTACX_site6884]”, the “gcPBM binding intensity (ln)” value is reported as 9.35.
With “AGTTAAATGAATCAATACATAAATATGTATATATAT [TGCATGCA_negctrl_site539]” the “gcPBM binding intensity (ln)” value was 9.16.
“TGAATCAATTGTTGCTGTACATAAGGTATACAATAA [XGTACX_site5127]” was tested, and the “gcPBM binding intensity (ln)” value was 9.1.
“TTTTTTTAATAAATTTATAACAATATGATAGGTGAC [CACACA_negctrl_site1783]” was tested, and the “gcPBM binding intensity (ln)” value was 9.33.
With “TAATTACCATATGGTACACACATATATATCTGTATA [CACACA_site5849]” the “gcPBM binding intensity (ln)” value was 9.59.
With “AATAATATCTGAAAATGTACATTTTATTATAAACAT [XGTACX_site8441]” the “gcPBM binding intensity (ln)” value was 9.32.
For “AAGAAGAGTTATTGTAGTACATTTTTAAATGTAATA [XGTACX_site7664]”, the “gcPBM binding intensity (ln)” value was 9.04.
“AAGAATTATAGAAACACACATACATACAGACATACA [CACACA_site1943]” was tested, and the “gcPBM binding intensity (ln)” value was 9.82.
AATACACACCTGTGGGTGCTTATAATAAGCCACAAA was tested, and the “gcPBM binding intensity (ln)” value was 9.35.
In the case of “TATTTTTTTATTTATTGTACTTTAAAAAAAATTAAA [XGTACX_site6167]”, the “gcPBM binding intensity (ln)” value is reported as 8.75.
In the case of “TAACAAATATTATTTTGTACATAATATATATATATA [XGTACX_site6898]”, the “gcPBM binding intensity (ln)” value is reported as 9.03.
In the case of “TTATAAAAATATTACGCACACACAAACTTATTCATT [CACACA_site1970]”, the “gcPBM binding intensity (ln)” value is reported as 9.76.
In the case of “ATATATTTATATTATACACACAAAAATATTTTGTAT [CACACA_site6262]”, the “gcPBM binding intensity (ln)” value is reported as 9.4.
With “TATATATATTAATTTATTTATTTGTTTATTTATTTA [CACACA_negctrl_site185]” the “gcPBM binding intensity (ln)” value was 9.27.
For “ATATAATAATATTATACATGCAAAATATGTTCTTCA [TGCATGCA_site115]”, the “gcPBM binding intensity (ln)” value was 9.19.
